The whole screen tested about 310,000 compounds, of which about 14,000 (4.5%) showed an effect of 50% or more. Effects have a minus sign here. The list shows a part of the results.
target: human ether-à-go-go-related gene (hERG) potassium channel (human, UniProt Q12809); test: primary screen, population patch clamp on CHO cells stably expressing hERG
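Note: peak tail current of the secondary pulse compared with the same well before compound.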

Sequence of human ether-à-go-go-related gene (hERG) potassium channel (Q12809 whole entry, looked up): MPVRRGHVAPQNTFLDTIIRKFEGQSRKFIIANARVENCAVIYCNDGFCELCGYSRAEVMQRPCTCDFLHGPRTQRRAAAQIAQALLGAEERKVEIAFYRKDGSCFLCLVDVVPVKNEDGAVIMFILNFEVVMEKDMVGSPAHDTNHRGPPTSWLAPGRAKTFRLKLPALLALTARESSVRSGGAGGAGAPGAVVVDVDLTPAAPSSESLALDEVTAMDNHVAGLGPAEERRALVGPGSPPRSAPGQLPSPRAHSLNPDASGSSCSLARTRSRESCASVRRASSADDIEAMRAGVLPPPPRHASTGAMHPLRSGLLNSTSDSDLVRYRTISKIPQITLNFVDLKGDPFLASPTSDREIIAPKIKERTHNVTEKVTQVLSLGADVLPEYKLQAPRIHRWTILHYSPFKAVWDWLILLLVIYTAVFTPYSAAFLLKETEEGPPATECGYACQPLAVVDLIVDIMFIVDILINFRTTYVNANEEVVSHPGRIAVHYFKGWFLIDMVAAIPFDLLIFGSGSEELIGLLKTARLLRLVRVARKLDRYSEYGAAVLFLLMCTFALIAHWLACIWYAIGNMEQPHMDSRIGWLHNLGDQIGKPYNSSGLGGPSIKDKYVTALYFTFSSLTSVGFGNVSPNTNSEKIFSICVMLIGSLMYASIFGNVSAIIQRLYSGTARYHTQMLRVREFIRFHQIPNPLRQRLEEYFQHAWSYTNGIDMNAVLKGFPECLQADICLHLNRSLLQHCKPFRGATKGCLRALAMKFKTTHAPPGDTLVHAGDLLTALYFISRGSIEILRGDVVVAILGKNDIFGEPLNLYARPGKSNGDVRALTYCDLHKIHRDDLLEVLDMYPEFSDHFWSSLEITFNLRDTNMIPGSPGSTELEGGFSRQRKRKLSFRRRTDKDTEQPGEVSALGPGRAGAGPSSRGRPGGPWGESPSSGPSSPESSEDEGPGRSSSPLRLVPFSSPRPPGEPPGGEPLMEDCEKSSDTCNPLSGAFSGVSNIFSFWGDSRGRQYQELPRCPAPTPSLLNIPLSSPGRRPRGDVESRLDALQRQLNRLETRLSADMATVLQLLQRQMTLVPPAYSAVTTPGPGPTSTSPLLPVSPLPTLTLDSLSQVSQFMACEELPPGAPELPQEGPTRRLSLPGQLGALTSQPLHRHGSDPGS

Row | SMILES | hERG current change (%, negative = inhibition) at 10uM
1 | CN(C)C(CNC(=O)c1ccc(-c2ccccc2)cc1)c1ccccc1 (centres unmarked) | -22.5%
2 | O=C(c1ccoc1)N1CCCC(N2CCN(c3cccc(C(F)(F)F)c3)CC2)C1 (centres unmarked) | -55.5%
3 | CC(=O)OCc1cc(-c2nn(C)c(=O)c3ccccc23)ccc1C | 2.25%
4 | CCOc1ccccc1Oc1cn[nH]c1-c1ccc(OCC(=O)NN)cc1O | 1.6%
5 | O=[N+]([O-])c1ccc(Cl)c(CN2CCC(O)CC2)c1 | 2.93%
6 | COc1ccc(OC)c(C(C)NC=O)c1 (centres unmarked) | 11.1%
7 | COc1cccc(/C=C/c2ccc3cccc(O)c3n2)c1 | 14.8%
8 | Cc1ccc(CNC(=O)c2cc(COc3c(F)cccc3F)on2)s1 | 11.6%
9 | O=c1cc(Cl)c2ccccc2n1-c1ccccc1 | 7.11%
10 | COc1ccc(CN(C)c2nc(-c3cccnc3)nc3ccccc23)cc1OC | 6.06%
11 | COc1ccc(-n2nc(C(=O)NCC(=O)N3CCCCC3)c3ccccc3c2=O)c(OC)c1 | 15.4%
12 | CCOC(=O)c1c(-c2cccs2)csc1N | 10.7%
13 | CCCNC(=O)c1cc(-c2ccccc2)c(N2CCCCC2)s1 | 14.2%
14 | CC(=O)NN1CCc2cc3ccc(C)cc3nc21 | 8.1%
15 | COC(=O)C(=C/C=C/c1cccnc1)C(=O)OC | 28.7%
16 | COC(=O)c1ccc(NC(=O)c2ccc(CN3CCOCC3)cc2)cc1 | -8.18%
17 | COc1cccc(N2CCN(c3ccc([N+](=O)[O-])cn3)CC2)c1 | 13.8%
18 | Cl.Clc1cccc(Cl)c1CNCCCSc1ncccn1 | -7.64%
19 | CC(=O)OC1(Cc2ccccc2)CN2CCC1c1ccccc12.Cl (centres unmarked) | -12.7%
20 | Cc1ccc2c(c1)N(CCC(=O)NCCCN1CCCC1)C(=O)CO2 | 12.7%
21 | CCN1CCN(C(c2ccc(OC)cc2)C(O)C(=O)c2c[nH]c3ccccc23)CC1 (centres unmarked) | -69%
22 | COc1cccc(N2CCN(C3OC(=O)c4ccccc43)CC2)c1 (centres unmarked) | -0.546%
23 | COc1ccc(OC)c(/C=C/c2ccc3cccc(O)c3n2)c1 | 19.2%

Row | SMILES | hERG current change (%, negative = inhibition) at 10uM
24 | O=c1cccc2n1C[C@@H]1C[C@@H]2CN(CC(O)c2ccc([N+](=O)[O-])cc2)C1 (some centres unmarked) | -49%
25 | COc1ccc(S(=O)(=O)N2CCC(C(=O)NCC3CCCCC3)CC2)cc1 | -8.15%
26 | O=C(Nc1cccc(Cl)c1)C1CC1c1ccccc1 (centres unmarked) | -7.52%
27 | COc1ccc(C2CC(=O)C=C(O)C2)cc1 (centres unmarked) | -27.8%
28 | O=C(O)C(O)C(O)C(=O)O.O=C(c1ccc(F)cc1)C1CCN(CCn2c(=O)[nH]c3ccccc3c2=O)CC1 | -51.8%
29 | COc1ccc(C(=O)CN2C(=O)C(C)(C)Oc3ccc(C(=O)N4CCCCCC4)cc32)cc1 | -42.8%
30 | CCN(CC)S(=O)(=O)c1ccc(Cl)c(C(=O)OCC(=O)c2c(N)n(C)c(=O)n(C)c2=O)c1 | -16.5%
31 | COc1ccc(OC)c(C2C(C(C)=O)=C(O)C(=O)N2c2ccc(F)cc2)c1 (centres unmarked) | 13.5%
32 | O=C(O)CSc1nc2sc3c(c2c(=O)n1-c1ccccc1)CCC3 | 22.3%
33 | CC(c1n[nH]c(=S)n1-c1ccc(Cl)cc1)N(C)C (centres unmarked) | 15.4%
34 | c1ccc(-n2c3ccccc3c3ccccc32)cc1 | 22.5%
35 | CN(Cc1ccccc1)C(=O)Cn1c(=O)oc2cc(S(=O)(=O)N3CCCC3)ccc21 | -8.36%
36 | Cc1onc(-c2c(F)cccc2Cl)c1C(=O)N1CCOC12CCCCC2 | -19.4%
37 | COc1cc2c(cc1OC)-c1cc(Nc3ccccc3Br)nc(=O)n1CC2 | 5.2%
38 | Cc1ccc(S(=O)(=O)N2CCCC2C(=O)OCC(=O)Nc2ccc3c(c2)OCO3)cc1 (centres unmarked) | -1.81%
39 | O=C(C1CCCN1C(=O)c1cccs1)N1CCN(S(=O)(=O)c2ccc(F)cc2)CC1 (centres unmarked) | 1.18%
40 | CCC(C)c1ccccc1NC(=O)C(C)OC(=O)c1ccco1 (centres unmarked) | -15.9%
41 | Cc1[nH]c2ccccc2c1/C=C(\C#N)C(=O)NCc1ccccc1 | 10.9%
42 | FC(F)(F)c1cccc(Sc2cc(C(F)(F)F)nc(-c3ccccn3)n2)c1 | -15.4%
43 | CNc1cc(=O)n(C)c(=O)n1-c1ccccc1 | 6.72%
44 | CCOC(=O)c1cc(-c2ccc(F)cc2)n(CCC(=O)NC2CCN(Cc3ccccc3)CC2)c1C | -64.2%
45 | CCc1ccc2c(c1)C(NC(C)=O)C(=O)N2CC (centres unmarked) | 11.3%
46 | COCCn1ccc2c(OCC(=O)NCCc3ccc(OC)c(OC)c3)cccc2c1=O | -23%

Row | SMILES | hERG current change (%, negative = inhibition) at 10uM
47 | CCCN(CC(=O)Nc1ccccc1OC)C(=O)c1cccc(S(=O)(=O)NCc2ccccc2)c1 | -30.9%
48 | CN1CCC(N(C)C(=O)c2cc(-c3ccccc3Cl)nc3ccccc23)CC1.Cl | -84.3%
49 | Nc1nc2nccc(-c3cccnc3)n2n1 | 29.6%
50 | COc1cc(OC)cc(C(=O)NC(C(=O)NCc2ccccn2)C(C)C)c1 (centres unmarked) | 9.36%
51 | CCCCNC(=O)N1CCOCCOCCN(C(=O)NCCCC)CCOCCOCC1 | -7.73%
52 | CC(=O)c1cc(-c2ccc(F)cc2)n(CCC(=O)Nc2cccc(C)n2)c1C | 19.2%
53 | COc1cc(C(=O)ONC(=O)c2ccc(OC(F)F)cc2)cc(OC)c1OC | 22.9%
54 | CC1CN(C(=O)COC(=O)c2ccc(C#N)cc2)CC(C)O1 (centres unmarked) | 5.25%
55 | CC(C)(C)CC(C)(C)NC(=O)/C=C/C(=O)O | -0.363%
56 | O=C(O)C1C2CCC(O2)C1C(=O)NC1CCCCC1 (centres unmarked) | 2.69%
57 | Cc1ccc(N2C(=O)C3NN=C(C(=O)OCc4ccccc4)C3C2=O)c(C)c1 (centres unmarked) | -2.8%
58 | COc1ccc(OCC(=O)OCC(=O)NCc2ccc(F)cc2)cc1 | 9.98%
59 | O=C(Cc1ccc(Cl)cc1)NNC(=O)Nc1cccc2ccccc12 | 16.1%
60 | Cc1cc(NCCCn2ccnc2)n2c(nc3ccccc32)c1C#N | 1.93%
61 | N=c1oc2cc(O)ccc2cc1C(=O)Nc1ccc(Br)cc1 | 1.92%
62 | COc1ccc(OC)c(NC(=O)CCN2C(=O)c3cccc([N+](=O)[O-])c3C2=O)c1 | 10.5%
63 | OCCN(CCCn1c(-c2ccncc2)nc2ccccc21)c1nc(CN2CCCCC2)cs1 | 23.4%
64 | O=C(Cc1ccc([N+](=O)[O-])cc1)N1CCN(c2ccc([N+](=O)[O-])cc2)CC1 | -73.7%
65 | CCCc1cc(C(=O)N2CCN(c3ccc(C(F)(F)F)cn3)CC2)sc1C | -32.9%
66 | N#CCCN1CCN(S(=O)(=O)c2ccc(S(=O)(=O)NC3CC3)cc2)CC1 | -1.76%
67 | Cc1ccc(NC(=O)CN2CCCC2)cc1Br.Cl | -11.9%
68 | Cc1c(NC(=O)c2ccc(F)cc2)c(=O)n(-c2ccccc2)n1C | 11.2%
69 | Cc1cc(OCCOCCN(C)CCO)cc(C)c1Cl | -40.9%

Row | SMILES | hERG current change (%, negative = inhibition) at 10uM
70 | Cc1cccc(NC(=O)c2ccc(C3SCC(=O)N3CCc3ccccc3)cc2)c1C (centres unmarked) | 5.54%
71 | Cc1ccc(C(=O)Nc2sc(C(=O)N(C)C)c(C)c2C#N)cc1 | 7.56%
72 | Cc1ccc(N2CCN(C(=S)Nc3ccccc3C)CC2)cc1 | 16.4%
73 | C#CCN(C(=O)CC1C(=O)NCCN1C/C=C/c1ccccc1)C1CCCCC1 (centres unmarked) | 13.4%
74 | COc1ccc(Nc2nc(-c3c[nH]c4ccccc34)cs2)cc1 | 16.5%
75 | CC(C)CCN1C(=O)c2ccc(C(=O)Nc3ccc(O)cc3C(=O)O)cc2C1=O | 12.4%
76 | O=C(Cc1ccc(-n2c(=O)[nH]c3ccccc3c2=O)cc1)N1CCN(c2cccc(Cl)c2)CC1 | -20.4%
77 | CN1CCN(C(=O)c2c(O)c3cccc4c3n(c2=O)CC4)CC1.Cl | 19.5%
78 | CCCCn1c(N)c(N(CCOC)C(=O)c2nn(CC)c(=O)c3ccccc23)c(=O)[nH]c1=O | 6.82%
79 | Cc1cc(N/N=C\c2ccc(Br)cc2)nc(-n2nc(C)cc2C)n1 | 19.1%
80 | COc1ccc(Cl)cc1N(C(C)C(=O)NC1CCCC1)S(C)(=O)=O (centres unmarked) | 7%
81 | CC1(C)CC(=O)C=C(NCC(O)c2ccccc2)C1 (centres unmarked) | 15.3%
82 | C=CCNC(=O)CN1CCN(C(c2ccccc2)c2ccccc2)CC1.O=C(O)C(=O)O | -5.05%
83 | Cc1ccc(-n2nc3cc(C)c(N)cc3n2)cc1 | 7.88%
84 | C=CCSC(=S)NC1CCS(=O)(=O)C1 (centres unmarked) | 6.98%
85 | COc1ccc(S(=O)(=O)NCc2ccncc2)cc1NC(=O)c1ccccc1F | 18.7%
86 | Cn1c(SCC(=O)Nc2ccc3c(c2)OCCO3)nnc1-c1ccncc1 | -7.75%
87 | COc1ccc(-c2cc(C(=O)NCc3cccnc3)no2)cc1OC | -0.608%
88 | Cc1cc(C)c(C#N)c(OCc2ccc(Cl)nc2)n1 | -8.51%
89 | CC(C)Cc1nc(C(N)=O)c2[nH]c(=O)n(-c3ccc(F)cc3)c2n1 | 6.62%

From article PMC4336329 (PLoS ONE, 2015)
